The chains are these.
B1: MUTED, Q8TDH9 (protein)
chain: MSGGGTETPVGCEAAPGGGSKKRDSLGTAGSAHLIIKDLGEIHSRLLDHRPVIQGETRYFVKEFEEKRGLREMRVLENLKNMIHETNEHTLPKCRDTMRDSLSQVLQRLQAANDSVCRLQQREQERKKIHSDHLVASEKQHMLQWDNFMKEQPNKRAEVDEEHRKAMERLKEQYAEMEKDLAKFSTF
B2: C8orf34, Q49A92 (protein)
chain: MSSPLASELSELAALRPGFRLSAPHARVAPRAATHARGRGRASHAGQPRLRSSCPGPSPGKRRVVPSGGAQPRVLPALSSRSHLFPMASHPQTRIQAYLEKNKIGPLFEELMTKLITETPDQPIPFLIDHLQSKQGNRGQLQRTLSGSAALWAESEKSESKGTRRDFRSYDKPWQLNAKKPKKSKSDLAVSNISPPSPDSKSLPRSVEHPKWNWRTKPQSRDFDELNHILQESKKLGKALENLSRSIAISDELDKETVTFNSSLLRPRVIGEWIGREENDADPLAAEMLQPPIPRSKNDQWESEDSGSSPAGSLKMEPKNKGLKQQQQQHKKLLAAMLSQDSFESIHSPTPSVTEEDIDNEDDAMELLEDLNDLRMEGVTTLVPSGSKFNQGRPTYPAEPQAKVTLNICSRCARLQGDNLEERTEESLPILHSPDEKIPDSFDSLPGTEEALMEEGDEFEKASKLTGPGEASSGVGHSLKNYMEEDESLKQLQVVHQPWILPSDTESEGVEAEQEKRSADLLLCVPCSSCPTLVYSGL
B3: MLN, P12872 (protein)
chain: MVSRKAVAALLVVHVAAMLASQTEAFVPIFTYGELQRMQEKERNKGQKKSLSVWQRSGEEGPVDPAEPIREEENEMIKLTAPLEIGMRMNSRQLEKYPATLEGLLSEMLPQHAAK
B4: GJB7, Q6PEY0 (protein)
chain: MSWMFLRDLLSGVNKYSTGTGWIWLAVVFVFRLLVYMVAAEHVWKDEQKEFECNSRQPGCKNVCFDDFFPISQVRLWALQLIMVSTPSLLVVLHVAYHEGREKRHRKKLYVSPGTMDGGLWYAYLISLIVKTGFEIGFLVLFYKLYDGFSVPYLIKCDLKPCPNTVDCFISKPTEKTIFILFLVITSCLCIVLNFIELSFLVLKCFIKCCLQKYLKKPQVLSV
B5: UQCR10, Q9UDW1 (protein)
chain: MAAATLTSKLYSLLFRRTSTFALTIIVGVMFFERAFDQGADAIYDHINEGKLWKHIKHKYENK

Some of the results follow. Interaction screen of human proteins with wild-type SARS-CoV-2 proteins by split-DHFR complementation in yeast, 1 µg/mL methotrexate. Value = fitness of the pair (three or more lineages) minus that of the viral protein without a human partner, on a scale set by negative (0) and fused positive (1) controls, mean of up to three cultures; higher = more likely to interact. Active = false discovery rate below 0.05 (one-sided t-test) in at least one culture. Nearly all pairs are not hits, and differences among them are mostly noise (correlation between cultures about 0.3); most hits were seen in one culture only. Human sequences are the Swiss-Prot entries looked up by gene name; the clone may be another isoform. NSP2 values were corrected by the authors for a growth advantage. Listed are human proteins with a hit and a random twelfth of the others.

The target of the first experiment is SARS-CoV-2 M. The experiment can be described thus: yeast fitness gain over the viral ORF with no human partner (scaled fitness); higher = more likely to interact. On the procedure: (§1)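 Split mouse DHFR complementation in pooled diploid yeast: human ORFeome clones carry one fragment and viral ORFs the other; barcoded lineages compete in 1 µg/mL methotrexate and fitness is read by barcode sequencing in up to three cultures.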
B1: the yeast fitness gain was inactive: 0.0382.
On the same count and under the same terms, with B2 the figure was inactive: 0.0112.
Same read-out and setting: with B3 the figure was inactive: 0.146; with B4, inactive: 0.037; with B5, inactive: 0.0268.

The target in the next experiment is SARS-CoV-2 NSP1. The description is as above. How it is done: as §1
For B1, the yeast fitness gain was inactive: -0.0869.
Still for that read-out and setting: with B3 the figure was inactive: -0.0295.
Same read-out and setting: in the case of B5 it was inactive: 0.037.

In the next experiment the target is SARS-CoV-2 NSP10. Described as above. On the procedure: as §1
For B1, the yeast fitness gain is inactive: -0.138.
For the molecule B2, the yeast fitness gain is inactive: -0.018.
As to B3, the yeast fitness gain is inactive: -0.248.
The same measure, in the same setting: with B4 the figure was inactive: -0.0355; with B5, inactive: -0.0215.

For the next experiment, the target named is SARS-CoV-2 NSP12. The description is as above. How it is done: as §1
As to B1, the yeast fitness gain is inactive: -0.0252.
For B2, the yeast fitness gain was inactive: -0.146.
Same read-out and setting: with B3 the figure was inactive: 0.0228; with B4, inactive: -0.126.
The same measure, in the same setting: with B5 the figure was inactive: -0.0306.

A further experiment concerns the target SARS-CoV-2 NSP13. Described as above. On the procedure:
as §1
Turning to B1, the yeast fitness gain is inactive: -0.0177.
Regarding B2, the yeast fitness gain was inactive: -0.0124.
For the molecule B3, the yeast fitness gain is inactive: 0.0411.
Turning to B4, the yeast fitness gain was inactive: -0.169.
On the same count and under the same terms, in the case of B5 it was inactive: 0.00656.

Another experiment concerns the target SARS-CoV-2 NSP2. The experiment is described as above. On the procedure: as §1
With B1, the yeast fitness gain is inactive: -0.257.
As to B2, the yeast fitness gain was inactive: -0.176.
As to B3, the yeast fitness gain is inactive: -0.139.
The same measure, in the same setting: with B4 the figure was inactive: -0.259; with B5, inactive: -0.0573.

A further experiment addresses SARS-CoV-2 NSP6. Described as above. How it is done: as §1
As to B1, the yeast fitness gain was inactive: 0.0771.
Still for that read-out and setting: in the case of B2 it was inactive: 0.0225; in that of B4, inactive: -0.115.
On the same count and under the same terms, with B5 the figure was inactive: -0.0399.

Another experiment has as its target SARS-CoV-2 NSP7. Described as above. How it is done:
as §1
As to B1, the yeast fitness gain is inactive: -0.275.
Still for that read-out and setting: with B2 the figure was inactive: -0.0771; with B4, inactive: 0.0526; with B5, inactive: 0.0825.

The next experiment addresses SARS-CoV-2 NSP8. The description is as above. How it is done: as §1
Regarding B1, the yeast fitness gain is inactive: -0.0535.
Still for that read-out and setting: in the case of B2 it was inactive: 0.105; in that of B4, inactive: 0.013; in that of B5, inactive: -0.0482.

The target in the next experiment is SARS-CoV-2 ORF10. The description is as above. How it is done: as §1
B1: the yeast fitness gain was inactive: -0.0581.
Same read-out and setting: with B2 the figure was inactive: 0.0474; with B4, inactive: -0.00305.
The same measure, in the same setting: with B5 the figure was inactive: 0.00558.

The next experiment addresses SARS-CoV-2 ORF3A. The experiment is described as above. On the procedure: as §1
Take B1: the yeast fitness gain was inactive: -0.00031.
On the same count and under the same terms, in the case of B2 it was inactive: -0.165; in that of B3, inactive: 0.0663.

A further experiment has as its target SARS-CoV-2 ORF3B. The experiment is described as above. On the procedure:
as §1
Take B1: the yeast fitness gain was inactive: 0.000824.
On the same count and under the same terms, with B2 the figure was inactive: -0.0632; with B4, inactive: -0.11.
Still for that read-out and setting: in the case of B5 it was inactive: 0.000584.

The next experiment addresses SARS-CoV-2 ORF6. Described as above. On the procedure:
as §1
With B1, the yeast fitness gain was inactive: -0.00909.
On the same count and under the same terms, in the case of B2 it was inactive: -0.0033.
Still for that read-out and setting: in the case of B3 it was inactive: 0.0234.
On the same count and under the same terms, in the case of B4 it was inactive: -0.129; in that of B5, inactive: -0.0159.

For another experiment, the target named is SARS-CoV-2 ORF7A. Described as above. How it is done: as §1
As for B1, the yeast fitness gain is inactive: -0.125.
Consider B2, for which the yeast fitness gain is inactive: -0.16.
Still for that read-out and setting: with B4 the figure was inactive: 0.296; with B5, inactive: 0.0329.

For the next experiment, the target named is SARS-CoV-2 ORF7B. The experiment is described as above. On the procedure: as §1
As for B1, the yeast fitness gain was inactive: -0.0201.
The same measure, in the same setting: in the case of B2 it was inactive: 0.00776.
Still for that read-out and setting: with B3 the figure was inactive: -0.0805.
The same measure, in the same setting: in the case of B4 it was inactive: 0.193.
As for B5, the yeast fitness gain was inactive: -0.00665.

The target of a further experiment is SARS-CoV-2 ORF8. The description is as above. On the procedure: as §1
For the molecule B1, the yeast fitness gain was inactive: 0.0116.
Same read-out and setting: with B2 the figure was inactive: -0.0396.
Take B3: the yeast fitness gain was inactive: 0.039.
The same measure, in the same setting: in the case of B4 it was inactive: 0.00109; in that of B5, inactive: -0.00605.

The target in the next experiment is SARS-CoV-2 ORF9B. The description is as above. On the procedure: as §1
As to B1, the yeast fitness gain is inactive: 0.0444.
Still for that read-out and setting: in the case of B2 it was inactive: 0.00496; in that of B3, inactive: -0.069.
On the same count and under the same terms, in the case of B4 it was inactive: -0.0544; in that of B5, inactive: -0.0272.

The next experiment addresses SARS-CoV-2 ORF9Bwu (the 73-codon ORF). Described as above. How it is done:
as §1
Consider B1, for which the yeast fitness gain was inactive: 0.0795.
Consider B5, for which the yeast fitness gain is inactive: -0.00969.

A further experiment deals with SARS-CoV-2 S. Described as above. How it is done:
as §1
On to B1, for which the yeast fitness gain was inactive: 0.00544.
The same measure, in the same setting: with B2 the figure was inactive: -0.13; with B3, inactive: -0.283.
Still for that read-out and setting: with B4 the figure was inactive: 0.0363; with B5, inactive: 0.084.

The target in the next experiment is SARS-CoV-2 N. The experiment is described as above. On the procedure: as §1
Turning to B2, the yeast fitness gain was inactive: 0.0446.
Same read-out and setting: in the case of B5 it was inactive: 0.172.

A further experiment deals with SARS-CoV-2 NSP15. Described as above. How it is done: as §1
Regarding B2, the yeast fitness gain was inactive: 0.0673.
On the same count and under the same terms, in the case of B4 it was inactive: -0.019; in that of B5, inactive: 0.0188.

A further experiment deals with SARS-CoV-2 NSP16. Described as above. How it is done:
as §1
Regarding B2, the yeast fitness gain is inactive: 0.0562.
For the molecule B5, the yeast fitness gain is inactive: -0.138.

The next experiment deals with SARS-CoV-2 NSP5. The description is as above. How it is done:
as §1
Consider B2, for which the yeast fitness gain is inactive: 0.0589.
The same measure, in the same setting: in the case of B3 it was inactive: 0.0088.
On the same count and under the same terms, with B4 the figure was inactive: 0.0412; with B5, inactive: -0.137.

The target in the next experiment is SARS-CoV-2 NSP9. Described as above. How it is done:
as §1
On to B2, for which the yeast fitness gain was inactive: -0.115.
On the same count and under the same terms, in the case of B5 it was inactive: 0.0139.

In the next experiment the target is SARS-CoV-2 NSP4. The experiment is described as above. How it is done: as §1
Take B5: the yeast fitness gain is inactive: -0.0594.
